Laboratory results as given in the supplement of paper PMC3724861.
Some of the results follow.

What follows are sequences tested on T1, Caupolican (Caup) homeodomain DNA-binding domain (assay: PBM E-score (8-mer, recovered from the published 9-mer minima) (E-score (dimensionless, -0.5 to 0.5)); Drosophila protein; higher = stronger relative binding preference, active = 0.31 or more).
T1 sequence: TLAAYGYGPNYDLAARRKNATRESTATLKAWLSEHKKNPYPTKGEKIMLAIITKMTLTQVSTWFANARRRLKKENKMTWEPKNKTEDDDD
Procedure, shortened: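 Caup's homeodomain DNA-binding domain (residues 214-303) was made by in vitro transcription and translation and applied at 100 nM to custom-designed protein binding microarrays. Each value is an enrichment score that gives relative binding preference for a short DNA word, with higher meaning stronger. The 8-mer values were recovered from published 9-mer scores, each of which was the minimum of its two constituent 8-mer scores. A cutoff of 0.31 marks candidate sites.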

Row | Sequence | PBM E-score
1 | GTTAAGTA | inactive: 0.147
2 | CGCATCCC | inactive: -0.161
3 | CTCATATA | inactive: 0.113
4 | ACGCCGAA | inactive: -0.127
5 | ACAAACGC | inactive: 0.0263
6 | CGAACCCG | inactive: -0.15
7 | CAATAGGA | inactive: 0.0513
8 | AACATTAC | inactive: 0.244
9 | ACCGATAT | inactive: 0.0303
10 | CGAAACCA | ≥ 0.126
11 | CATCAATA | inactive: 0.164
12 | CTCGGTAA | inactive: -0.0579
13 | AGATATCT | inactive: 0.0618
14 | AAGAGACT | inactive: -0.0798
15 | CCATTCGG | inactive: 0.00964
16 | AACAACAC | active: 0.392
17 | AAGCTTAT | ≥ 0.0779
18 | ACTAGGGA | inactive: -0.0769
19 | TAGTAATA | inactive: 0.28
20 | AGATGGGC | inactive: -0.186
21 | GCAAGGAA | inactive: 0.00778
22 | AGGCTTAG | inactive: -0.108
23 | AATTAAAC | inactive: 0.223

Row | Sequence | PBM E-score
24 | CACGAATA | inactive: 0.187
25 | CAAAGTAC | inactive: 0.172
26 | AGATTCTA | inactive: 0.0842
27 | GCGTCTAC | inactive: -0.0987
28 | ACCCGTAT | inactive: 0.0244
29 | AGCGGGCG | inactive: -0.261
30 | CAGCCATC | inactive: -0.0335
31 | ATACTACG | inactive: 0.0679
32 | CTTATTGA | inactive: 0.0828
33 | GACCCAGC | inactive: -0.162
34 | CTATCCGC | inactive: -0.14
35 | ACCACTTA | inactive: 0.0907
36 | GCAGGAGA | inactive: -0.128
37 | CAGGTCGG | inactive: -0.0619
38 | ATGCGGCA | inactive: -0.0769
39 | GCCAATCC | inactive: -0.167
40 | CTCAGGGA | inactive: -0.163
41 | CCTGCTCG | inactive: -0.134
42 | CTCGACGA | inactive: -0.0765
43 | AAAGTAGA | inactive: 0.0401
44 | GCACTGGA | inactive: -0.136
45 | GATCGCTA | inactive: -0.0372
46 | CTAAGGGC | inactive: -0.144

Row | Sequence | PBM E-score
47 | AGAGTGCC | inactive: -0.179
48 | GCAATTTA | inactive: 0.149
49 | CGGCGGAG | inactive: -0.233
50 | CCATCCGA | inactive: 0.022
51 | ATTTGACA | active: 0.347
52 | ATAATCAA | inactive: 0.0548
53 | GTCTAATA | inactive: 0.105
54 | TCGGGAAA | inactive: 0.0245
55 | TATGATAA | inactive: 0.207
56 | AAACGCAT | inactive: 0.0276
57 | CCCGACTA | inactive: -0.11
58 | CGGATAAA | inactive: 0.0379
59 | CGCTCTAC | inactive: 0.0269
60 | ACTTTACA | inactive: 0.272
61 | TATTGGAA | inactive: 0.124
62 | ATTGCCGG | inactive: -0.0964
63 | CAGCGCAC | inactive: -0.0973
64 | AGGCTCGG | inactive: -0.114
65 | GTCTGATA | inactive: 0.189
66 | AGAAACCG | inactive: -0.0762
67 | GCAGGGGC | inactive: -0.202
68 | TAAAATCA | inactive: 0.13
69 | CGACCGCC | inactive: -0.111

Row | Sequence | PBM E-score
70 | CGGGCACA | inactive: -0.102
71 | CTCCAGGA | inactive: -0.203
72 | GCCGATAA | inactive: -0.0402
73 | AACATGTT | active: 0.45
74 | CACGGAGA | inactive: -0.0466
75 | CGAATATA | inactive: 0.0542
76 | CGATCAGA | inactive: -0.0486
77 | AGTACTTG | inactive: 0.123
78 | TAATTGGA | inactive: 0.0559
79 | AAGTGATA | inactive: 0.0619
80 | AAGTTTCG | inactive: 0.037
81 | ACCTCAAT | ≥ 0.0676
82 | CCAAACCC | inactive: -0.1
83 | AACAGGCC | inactive: -0.0603
84 | ATGTAATG | active: 0.37
85 | TTCAGAAA | inactive: -0.0521
86 | CAAGCCTC | inactive: -0.106
87 | GGAGCAAA | inactive: -0.0721
88 | ACGGCGGG | inactive: -0.185
89 | CGGGGCGC | inactive: -0.306
90 | ATGCGCAG | inactive: -0.135
91 | ATAGGATA | inactive: 0.122
92 | AGTCCCTA | inactive: -0.136

Row | Sequence | PBM E-score
93 | GGGTCAAA | inactive: -0.108
94 | GTTTCCAA | inactive: 0.0825
95 | CTAACAAC | inactive: 0.278
96 | GACTAAAA | inactive: -0.019
97 | AACTTACC | inactive: -0.0127
98 | ACGTATAG | inactive: 0.108
99 | GCTTCCAA | inactive: -0.0538
100 | AGCGGCGA | inactive: -0.149
101 | GCTTTGCC | inactive: -0.189
102 | AGTCAATA | inactive: 0.0895
103 | AAATTCTA | inactive: 0.126
104 | ACGGATCA | inactive: 0.0735
105 | CCGGTATA | inactive: 0.111
106 | TCCCCACA | inactive: -0.133
107 | GCAAAGTA | inactive: 0.0214
108 | AACCTGGG | inactive: -0.119
109 | TTAACTAA | inactive: 0.169
110 | AAGGTTGT | inactive: 0.278
111 | CCCGCACA | inactive: -0.146
112 | AGTGAGGA | inactive: -0.0422
